Data taken from the RNAGym collection of RNA variant scans (doi:10.7554/elife.90254).
The source gives no read counts; variants with many changes may rest on few reads.

B1: LINE1-mini (parent)
chain: GGCAGAGCUCAACACAGCGUGGCAAAGUGGCUGUGGCUAGACUGCC

Variants of: B1
Test: self-cleavage, relative activity (ratio to wild type); higher = more cleavage; in vitro, sequencing; the parent is a self-cleaving ribozyme

Variant | self-cleavage
GGCAGAGCUCUAAACAGAGUGGCAAAGUGGCUGUGGCUAGACUGCC [A11U C13A C18A] | 0.04
GGCAGAGCUCAACACAGCCUGGCAAAGUGGCUGUAUCUAGACUGCC [G19C G35A G36U] | 0.26
GGCGGAGCUCAACACAGCGUGGCGAAGCGGCUGUGGCUAGACUGCC [A4G A24G U28C] | 1.04
GGCAGAGCUCAACACAGUGUGACAAAGUUGCUCUGGCUAGACUGCC [C18U G22A G29U G33C] | 0.02
GCCAGAGCUCAACUCAGCGUUGCAAAGUGGCUGUGGCUAGACUGCC [G2C A14U G21U] | 0.19
GGCAGAGCUCAACAAAGCGUGGCAGGGUUGCUGUGGCUAGACUGCC [C15A A25G A26G G29U] | 0.09
AGCAGAGCUCAACAAGGCGUGGCAAAGUGGCUGUGGCUAGAGUGCC [G1A C15A A16G C42G] | 0.01
GGCAGAGUUCAACACAACGUGGCAAAGUGGCUUAGGGUAGACUGCC [C8U G17A G33U U34A C37G] | 0.02
CGCAAAGCUCAACACAGCGUGGAAAAGUGGCUGUGGGUAGACUGUC [G1C G5A C23A C37G C45U] | 0.04
GGCAGAGCUCAACACAGUGUGGCAAAGUGGCGGCGGCUAGACGGCC [C18U U32G U34C U43G] | 0.01
GGCAGAGAUGAACACCGCGUGGCAAAGUUGCUGUGGCUACACUGCC [C8A C10G A16C G29U G40C] | 0.03
GGCAGGGCUCAACACAGCGUGGCAAGGUGGCUGUGGCUAGCCUGCA [A6G A26G A41C C46A] | 0.12
UGCAGACCUCAACACAGCGUGGCAAAGUGGCUGUUGCUAAACUGCC [G1U G7C G35U G40A] | 0.07
GGCGGAGCUCAACACAGCGUGUCAAAGAGGCUGUGGCUAGACUGCC [A4G G22U U28A] | 0.35
GACAGCGCUCAACACAGCGUGGCAACGUGGCCGUGGCUGGAGUACC [G2A A6C A26C U32C A39G C42G G44A] | 0.22
AGCAGCGCCCAACACAGCGUGCCAAAGUCGCUGUGACUAGACUGCC [G1A A6C U9C G22C G29C G36A] | 0.07
GGCAGAGUUCAACACAGCGUGGGAAAGUGGCUGUGGCUAGAGUGCC [C8U C23G C42G] | 0.08
GGCAGAGCUCAACACAGCGUUGUAAAGUGGCUGUUGCAAGACUGCC [G21U C23U G35U U38A] | 0.32
GGCAGAGCUCAACACGGCUUGGCAAAGUGGCUGUUGCUAGACUGCC [A16G G19U G35U] | 0.05

Variant | self-cleavage
GGCAGAGCUCAACCCAGCGUGGCAAAGCGGCUGUGGGUAGACUGCC [A14C U28C C37G] | 0.03
GGCAGAGCUCAACAUAGCGUGGCAAAGUGGCAGUGACUAGACUGCC [C15U U32A G36A] | 0.03
GGCAGAGCUCAACACAGUAUGGCUAAGUGGAUGUGGCUAGACUGCC [C18U G19A A24U C31A] | 0.03
GUUAGAGCUUAACACAGCCUGGCACUGUGGCUGUGGCUAGACUGCC [G2U C3U C10U G19C A25C A26U] | 0.06
GGCAGAGCUCAACACAGCGCCGCAAAGUGGCUGUGGCUAAACUGCU [U20C G21C G40A C46U] | 0.05
GGUAGAGUUCUACACAUCGUCGCAAAGUGGCUGUGGCUAGACUUCC [C3U C8U A11U G17U G21C G44U] | 0.02
GGCAGAGCUCAACACAGCGUGGCAAAGUGACUGAGGCUAGACUACC [G30A U34A G44A] | 0.04
GGCAGAGCUCAACACAGCGUGGGAAAGUGGUUGUAGCUAGACUGGC [C23G C31U G35A C45G] | 0.02
GGCAGAGCUCAACACAGCGUGCCUGAGUGGUUGUUGCUAGACUGCC [G22C A24U A25G C31U G35U] | 0.03
GGCAGAGCUCAACACAGCGUGGCAAUGUGGCUGUGGCUGUACUGCC [A26U A39G G40U] | 0.08
GGAAGAGCUCAACACAGGGUGGCAAAGUGGCUGUGGCUAGACUGCA [C3A C18G C46A] | 0.2
GGCAUAGCUCAACACCGCGUGGCGAAGUGGCUGUGGCUAGACUGCC [G5U A16C A24G] | 0
GGCAGAGCUCAACAGAGCGUGGCACAGUGGCUGAGGUUAGAAUGCC [C15G A25C U34A C37U C42A] | 0.01
GGCCGAGCUUAACCCAGCAUGGCAAAUUGGCUGUGGCUAGACUGGC [A4C C10U A14C G19A G27U C45G] | 0.01
GGCAGAGCUCAACACAGCGUGGCAAAGUGGCUGUGGCUUGCUUGCU [A39U A41C C42U C46U] | 0.5
GGCAGAGCUCAACGAAACGUAGCAAUAUGGCUAUGGCUUGACUGCC [A14G C15A G17A G21A A26U G27A G33A A39U] | 0.02
GGCAGGGCUCAACACAGCCUGGCAAAGUUGCUGUGGCUAGACUGCC [A6G G19C G29U] | 0.05
GGCAGAGCUCAACUCAGCGUGCCAAAGUGGCUGUGGCUUGACUGCC [A14U G22C A39U] | 0.12
GGCAGAGCUCAACGCAGCGUGGCCAAUAGGCUGUGUCUAGACUGCC [A14G A24C G27U U28A G36U] | 0.04

Variant | self-cleavage
GUCAAAGCUCAACACAGCGUGGCAAAGUGGCUGUGGCCAGACUUCC [G2U G5A U38C G44U] | 0.06
GGCAGAGCUCAACUCAACGUGGCAAAGUGGCUGUUGCUAGACGGCC [A14U G17A G35U U43G] | 0.01
GGCAGAGCUCAACACAGCGUGAGACAGUGGCUGUGGCUAGACUGCC [G22A C23G A25C] | 0.15
GGUAGAGCUCAAGACAGCGUUGCAAAUUGGCUUUGGCCAGACUGCC [C3U C13G G21U G27U G33U U38C] | 0.06
GGCAGAGCUCAACGAAGUGUGGCAAAGUAGCUGUGGCUAGACUGCC [A14G C15A C18U G29A] | 0.04
GGCAGAGCUCAGCACGGCGUGGCAAAGUGGCUGUGGCAAGAAUGCC [A12G A16G U38A C42A] | 0.09
CGGAGAGCUCAACGCAGCGUGGCAAAGUGGCUGUGGCUAGACUGCC [G1C C3G A14G] | 0.03
GGAAGAGCUCAACACAGUGUGGAAAAGUGGCUGUGGCUAGACUGCC [C3A C18U C23A] | 0.17
GGCAGAGCUCAACACAGCGUGACAAAGUGGCUGAGGCUUGACCGCC [G22A U34A A39U U43C] | 0.02
GGCAGAGCUCAAUACAGCCUGGCAAAGUGGCUGUGGCUUGACUGCC [C13U G19C A39U] | 0.13
GGCAGCGCUGAUCACGGCUUGGCAGAGUGACUGUGGCUAGACUGCG [A6C C10G A12U A16G G19U A25G G30A C46G] | 0
GGCAGAGCGCAACACAGCGUGGCAGUGUGGCUGUGGCUAGACUGCC [U9G A25G A26U] | 0.08
GGCAGAGGUCAACCCAACCUGGGAAAGUGGCUGUGGCUAGACUGCC [C8G A14C G17A G19C C23G] | 0.03
GGCAGAGCUCAACACAGGGUGGCAAAGUGGCUGUGGCAAGACCGCC [C18G U38A U43C] | 0.07
AGCAGAGAUCAACACAGCUUGGCAAAGUGGGUGUGGAUAGACUGCC [G1A C8A G19U C31G C37A] | 0.02
GGCAGAGCUGAACACAGCGUGUCAAAGCGGCUGUGGCUAGACUGCC [C10G G22U U28C] | 0.07
GGCAGACCUCAACACAGCGUGGAAAAGUGGUUGUGGCUAGACUGCC [G7C C23A C31U] | 0.05
GCCAGAGCUCAACACAGCGAGGCAAAGUGGCUGUGGCUAUACUGGC [G2C U20A G40U C45G] | 0.03
